Results reported in the supplement of paper PMC4604168 (melanoma cell lines).
The list shows a part of the results. Repeats are few or missing, and single values can be far off.

test system: 501Mel; experiment: cell count relative to DMSO control; melanoma cells; higher = more viable cells; settings: library dose: standard library concentration; 72 h
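Also: cells treated in 1,536-well plates, then fixed and DAPI-stained, with nuclei counted from automated high-throughput microscope images.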

| SMILES | cell count |
| --- | --- |
| O=C(O)c1ccc2c(c1)nc(Nc1cccc(Cl)c1)c1ccncc12 + CC(C)CCN1c2nc(Nc3cc(F)c(O)c(F)c3)ncc2N(C)C(=O)C1C [BID1870] (first compound 2 µM, partner dose 1 µM) | 58.1% |
| Cc1cc(N2CCOCC2)cc2[nH]c(-c3c(NC[C@@H](O)c4cccc(Cl)c4)cc[nH]c3=O)nc12 + Cn1cc(/C=C2\C(=O)Nc3cccnc32)c2ccccc21 [GW441756] (first compound 1 µM, partner dose 2 µM) | 60.9% |
| O=C(Nc1ccccc1)c1cc([N+](=O)[O-])ccc1Cl + O=C1NC(=O)/C(=C/c2ccc(-c3ccc(F)cc3O)o2)S1 [AS252424] (first compound 10 µM, partner dose 5 µM) | 79.2% |
| O=C(O)c1ccc2c(c1)nc(Nc1cccc(Cl)c1)c1ccncc12 + COc1ccc(COc2ccc(Cc3cnc(N)nc3N)cc2OC)cc1 [GW2580] (first compound 2 µM, partner dose 5 µM) | 68.3% |
| O=C(O)[C@@H]1[O][Sb](=[O])([O][Sb]2(=[O])[O][C@H]([C@H](O)CO)[C@H](O)[C@H](C(=O)O)[O]2)[O][C@H]([C@H](O)CO)[C@@H]1O (some centres undefined) [stibogluconate] + Cn1cc(/C=C2\C(=O)Nc3cccnc32)c2ccccc21 [GW441756] (first compound 10 µM, partner dose 2 µM) | 97.6% |
| O=C(O)[C@@H]1[O][Sb](=[O])([O][Sb]2(=[O])[O][C@H]([C@H](O)CO)[C@H](O)[C@H](C(=O)O)[O]2)[O][C@H]([C@H](O)CO)[C@@H]1O (some centres undefined) [stibogluconate] + Cc1cc([N+](=O)[O-])ccc1NS(=O)(=O)c1cc(Cl)ccc1Cl [FH535] (first compound 10 µM, partner dose 5 µM) | 62.1% |
| O=C(Nc1cc(C(F)(F)F)cc(C(F)(F)F)c1)c1cc(Cl)ccc1O + O=C(Nc1ccccc1)c1cc([N+](=O)[O-])ccc1Cl [GW9662] (first compound 0.08 µM, partner dose 10 µM) | 63.9% |
| Cc1cc(N2CCOCC2)cc2[nH]c(-c3c(NC[C@@H](O)c4cccc(Cl)c4)cc[nH]c3=O)nc12 + O=S(=O)(c1ccccc1)N(CC(F)(F)F)c1ccc(C(O)(C(F)(F)F)C(F)(F)F)cc1 [T0901317] (first compound 1 µM, partner dose 7 µM) | 65.9% |
| O=C(Nc1cc(C(F)(F)F)cc(C(F)(F)F)c1)c1cc(Cl)ccc1O + O=C1NC(=O)/C(=C/c2ccc(-c3ccc(F)cc3O)o2)S1 [AS252424] (first compound 0.08 µM, partner dose 5 µM) | 62.3% |
| O=C(O)c1ccc2c(c1)nc(Nc1cccc(Cl)c1)c1ccncc12 + CCN(CC)CCCCNc1ncc2cc(-c3cc(OC)cc(OC)c3)c(NC(=O)NC(C)(C)C)nc2n1 [PD173074] (first compound 2 µM, partner dose 0.5 µM) | 87% |
| O=C(Nc1cc(C(F)(F)F)cc(C(F)(F)F)c1)c1cc(Cl)ccc1O + COC(=O)c1sccc1S(=O)(=O)Nc1ccc(Nc2ccccc2)cc1OC [GSK0660] (first compound 0.08 µM, partner dose 5 µM) | 81.9% |
| O=C(O)c1ccc2c(c1)nc(Nc1cccc(Cl)c1)c1ccncc12 + COc1cc(N2CCC(N3CCN(C)CC3)CC2)ccc1Nc1ncc(Cl)c(Nc2ccccc2S(=O)(=O)C(C)C)n1 [NVP-TAE684] (first compound 2 µM, partner dose 0.4 µM) | 94.8% |
| Cc1cc(N2CCOCC2)cc2[nH]c(-c3c(NC[C@@H](O)c4cccc(Cl)c4)cc[nH]c3=O)nc12 + O=C1NC(=O)/C(=C/c2ccc(-c3ccc(F)cc3O)o2)S1 [AS252424] (first compound 1 µM, partner dose 5 µM) | 47% |
| O=C(O)[C@@H]1[O][Sb](=[O])([O][Sb]2(=[O])[O][C@H]([C@H](O)CO)[C@H](O)[C@H](C(=O)O)[O]2)[O][C@H]([C@H](O)CO)[C@@H]1O (some centres undefined) [stibogluconate] + COc1cc(N2CCC(N3CCN(C)CC3)CC2)ccc1Nc1ncc(Cl)c(Nc2ccccc2S(=O)(=O)C(C)C)n1 [NVP-TAE684] (first compound 10 µM, partner dose 0.4 µM) | 74.4% |
